The results in this text go back to the supplement of paper PMC10126150.

Values marked as one replicate rest on one cluster of the flow cell; about a third of the high ones do not repeat.

The test system of this data set is ATP. Put plainly: switch fluorescence ratio, 500 uM ATP over buffer (Cy3 cluster intensity, sum of 5 cycles each) (fold (ratio)); higher = stronger signal-on switching upon ATP binding; sequences stand for … in TCGTCGGCAGCGTCAGATGTGTATAAGAGACAGTTTTTTTTTTTTTTTTTTTTTTTTT…TC. As to conditions: aptamer strand: ATP DNA aptamer (quencher-CACCTGGGGGAGTATTGCGGAGGAAGG + anchor), 100 nM annealed; ATP concentration: 500 uM; one replicate. The essentials: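 After annealing to 100 nM quencher-labelled ATP aptamer, Cy3-labelled switching-strand clusters on a modified Illumina MiSeq flow-cell were imaged in selection buffer. A second image followed after 15 min with 500 uM ATP at 22 °C, and five such buffer/ATP cycles were done, each separated by NaOH stripping and re-annealing. The fluorescence ratio, averaged per switch-domain sequence, is summed target-cycle over summed buffer-cycle Cy3 intensity per cluster, with clusters outside 100-1000 RFU excluded.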
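Also: ATP exposure 15 min at 22 °C before imaging.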

Consider CCTTTAGGTA, for which the switch fluorescence ratio was 1.04.

With ACTTATAGT, the switch fluorescence ratio turned out to be 1.04.

Turning to TCGCATTATG, the switch fluorescence ratio turned out to be 1.44.

Turning to GTATTAAGTT, the switch fluorescence ratio stood at 1.39.

For the sequence AGGGACTTTG, the switch fluorescence ratio came to 0.993.

Regarding ATGTTAGGAG, the switch fluorescence ratio amounted to 1.01.

CATGGGTAGG: the switch fluorescence ratio was found to be 0.967.

AAGAAAATAT: the switch fluorescence ratio came to 1.01.

Turning to GAGAATCCAT, the switch fluorescence ratio was found to be 1.02.

As for AATGGATTAT, the switch fluorescence ratio turned out to be 1.01.

For AGTTATAGCC, the switch fluorescence ratio was 0.946.

Turning to GTGGGCTGGA, the switch fluorescence ratio came to 1.

In the case of CGCTTGTCGG, the switch fluorescence ratio is 1.

On to GACTTAAGAT, for which the switch fluorescence ratio came to 0.976.

As for TTTGCTTAG, the switch fluorescence ratio stood at 2.28.

Regarding TTAATCGCTA, the switch fluorescence ratio worked out at 1.04.

With CGTCAATCCG, the switch fluorescence ratio amounted to 1.

With TACCTGGGCG, the switch fluorescence ratio turned out to be 1.02.

For the sequence TTTCGTTAAT, the switch fluorescence ratio worked out at 1.25.

Regarding TAGTGTACAA, the switch fluorescence ratio amounted to 1.05.

For AGTGTTCTGG, the switch fluorescence ratio is 0.983.

Take GGTAATCGCG: the switch fluorescence ratio is 0.974.

For the sequence CCGGGTTATT, the switch fluorescence ratio was 1.02.

For TCCCCGACGA, the switch fluorescence ratio came to 2.35.

In the case of GGGTAAACGC, the switch fluorescence ratio is 0.981.

As for TAAATTTGT, the switch fluorescence ratio was determined as 1.04.

As to CGGAAGGGGT, the switch fluorescence ratio is 1.01.

Consider GTGGATACAT, for which the switch fluorescence ratio was found to be 0.953.

Take ACTCTGCCCT: the switch fluorescence ratio amounted to 1.36.

For the sequence GTGGGTAG, the switch fluorescence ratio was 0.968.

As to TATTAGTTTA, the switch fluorescence ratio is 1.01.

With ATGCACCTAG, the switch fluorescence ratio was determined as 1.01.

Regarding GGCCTCTGGC, the switch fluorescence ratio is 1.09.

Turning to GTATTCGGAA, the switch fluorescence ratio came to 1.01.

With GGTTCTCGTC, the switch fluorescence ratio was determined as 0.989.

On to TTTCATCATA, for which the switch fluorescence ratio worked out at 0.996.

For the sequence CCGGGACATC, the switch fluorescence ratio came to 1.38.

For the sequence AAGGCACGGT, the switch fluorescence ratio is 0.991.

Regarding TAAGACAGCG, the switch fluorescence ratio amounted to 1.15.

Consider ACAAGTACTA, for which the switch fluorescence ratio amounted to 1.31.

Regarding CCATGGCCAA, the switch fluorescence ratio came out at 1.31.

Regarding GTTCTTCTCA, the switch fluorescence ratio came to 0.976.

In the case of ATCCAAGCAG, the switch fluorescence ratio turned out to be 1.19.

For TGCATGGCC, the switch fluorescence ratio turned out to be 0.959.

CTGAATTGTT: the switch fluorescence ratio turned out to be 1.01.

Consider TTGGGACCCC, for which the switch fluorescence ratio is 1.57.

Take GTCTAGGCGT: the switch fluorescence ratio worked out at 0.979.

In the case of GCCAGATACT, the switch fluorescence ratio was found to be 1.08.

On to TAATTCAATT, for which the switch fluorescence ratio was 1.03.

Consider TGTTAAGTC, for which the switch fluorescence ratio amounted to 0.986.

Turning to ACGAATATTC, the switch fluorescence ratio turned out to be 1.01.

ATAGTAATGT: the switch fluorescence ratio came to 0.97.

Consider TTTAAGAACT, for which the switch fluorescence ratio turned out to be 1.08.

As to GCCATGAGTA, the switch fluorescence ratio was found to be 0.986.

In the case of GGACGTCCAG, the switch fluorescence ratio is 0.98.

Regarding CGGTTGGA, the switch fluorescence ratio worked out at 1.02.

As for GGCGCGGGAG, the switch fluorescence ratio came out at 0.98.

Turning to GATTTGGTCG, the switch fluorescence ratio amounted to 0.96.

CGATGTGATA: the switch fluorescence ratio was 1.18.

For AAGCCGGACC, the switch fluorescence ratio was found to be 1.05.

Turning to TCTACTAAAC, the switch fluorescence ratio came out at 1.03.

Consider AAATTCGTAG, for which the switch fluorescence ratio came out at 0.942.

For the sequence GAGGCAGTAA, the switch fluorescence ratio stood at 3.2.

For CGCACGATCT, the switch fluorescence ratio is 1.07.

With AGATAGTATA, the switch fluorescence ratio is 1.

Turning to GGGCGGCATT, the switch fluorescence ratio is 1.01.

For CAGCCCATAG, the switch fluorescence ratio worked out at 1.09.

With CCCCCCCCAG, the switch fluorescence ratio turned out to be 4.75.

In the case of ACCGTTGTAC, the switch fluorescence ratio was 2.73.

In the case of TAACTAGTCA, the switch fluorescence ratio amounted to 1.

Take AAGCTAGGGC: the switch fluorescence ratio was determined as 0.992.

As for GGTCCTCAGA, the switch fluorescence ratio is 1.01.

Consider CACGCTACAT, for which the switch fluorescence ratio came to 1.43.

In the case of AAACATTTAA, the switch fluorescence ratio came to 1.01.

On to GGTACATTTG, for which the switch fluorescence ratio stood at 1.01.

Consider AAGGAACTTG, for which the switch fluorescence ratio was found to be 1.04.

With GGGTAAAAGG, the switch fluorescence ratio is 0.99.

As to GGCCAAAATG, the switch fluorescence ratio came to 1.04.

On to TTTAACACAG, for which the switch fluorescence ratio came to 1.04.

As to CAAGTTTTAA, the switch fluorescence ratio is 0.962.

As for GAAAGAGCCG, the switch fluorescence ratio came to 1.92.

As to ACTGTTTCTT, the switch fluorescence ratio amounted to 1.01.

As for AGCTGAAGTA, the switch fluorescence ratio is 0.976.

On to ATTTCGATTG, for which the switch fluorescence ratio was 0.993.

As to AGGTATCTA, the switch fluorescence ratio stood at 0.979.

For the sequence TTTCGATAAC, the switch fluorescence ratio was 1.02.

On to AAGTTGGCTG, for which the switch fluorescence ratio is 1.01.

AGTGTGTCGC: the switch fluorescence ratio was 0.919.

GACTGATTAT: the switch fluorescence ratio is 0.994.

Regarding CTATGTGGAT, the switch fluorescence ratio came to 0.982.

With GCGGATATGT, the switch fluorescence ratio came to 1.03.

For the sequence GGAACCGCAT, the switch fluorescence ratio was 3.55.

For ACAGCTGGTG, the switch fluorescence ratio was 1.11.

With AGCCCAGAAT, the switch fluorescence ratio came out at 1.01.

GGAGTCTGTG: the switch fluorescence ratio worked out at 0.965.

With TAATAGTCGA, the switch fluorescence ratio worked out at 0.983.

As to AATAGGCCAT, the switch fluorescence ratio is 1.

As to ACATAAGGGA, the switch fluorescence ratio amounted to 1.05.

Consider ATACTGCCAT, for which the switch fluorescence ratio was 1.18.

TAGCAAGAGG: the switch fluorescence ratio is 1.42.

As to CCGGTATCTT, the switch fluorescence ratio is 0.976.

Turning to GTTCGGGCGA, the switch fluorescence ratio amounted to 0.993.

As for AAACGGAATC, the switch fluorescence ratio is 1.65.

For the sequence TCAAAGTTCG, the switch fluorescence ratio was 0.984.

With AAAGTAGTGG, the switch fluorescence ratio stood at 1.02.

Turning to ATCATGAGCT, the switch fluorescence ratio turned out to be 0.998.

With AGGCTGTA, the switch fluorescence ratio is 0.992.

Consider GGGATTGCAA, for which the switch fluorescence ratio stood at 0.98.

With TGATGCGGAA, the switch fluorescence ratio was found to be 1.07.

Consider AAGGTTTGCT, for which the switch fluorescence ratio is 0.97.

Regarding GAAATCCTA, the switch fluorescence ratio was determined as 1.05.

Take ACACGAGGCC: the switch fluorescence ratio worked out at 1.08.

Turning to TCTGGATTCC, the switch fluorescence ratio came out at 0.998.

As to GCGTCTCTGT, the switch fluorescence ratio amounted to 0.995.

With CGCCCCGGGG, the switch fluorescence ratio turned out to be 0.988.

On to GGAACCCCGG, for which the switch fluorescence ratio came out at 1.06.

For the sequence TGACGATTAT, the switch fluorescence ratio stood at 1.26.

As to CTAAGGAGAT, the switch fluorescence ratio is 0.991.

GATATCTGTT: the switch fluorescence ratio was 0.967.

Regarding AGAATTGTTA, the switch fluorescence ratio is 1.03.
